{"source": "the supplement of paper PMC8728848", "experiment_in_all_cases": "glycan array binding signal (z-score within array); higher = stronger binding", "conditions_in_all_cases": "glycan notation: IUPAC condensed, linker removed", "key": {"[1]": {"target": "Gal(b1-3)GlcNAc(b1-3)Gal(b1-4)[Fuc(a1-3)]GlcNAc(b1-6)[Gal(b1-3)GlcNAc(b1-3)]Gal(b1-4)Glc", "summary_of_the_method": "(§1)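 The binding signal is a Z-score computed within each array and averaged over linkers. Arrays of the same protein sequence at different concentrations or buffers were also averaged together. Data originate from 3228 arrays in the Consortium for Functional Glycomics database, kept only where the protein sequence was available.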"}, "[2]": {"target": "Gal(b1-3)GlcNAc(b1-3)GalNAc", "summary_of_the_method": "as §1"}, "[3]": {"target": "Gal(b1-3)GlcNAc(b1-6)Gal(b1-4)GlcNAc", "summary_of_the_method": "as §1"}, "[4]": {"target": "Gal(b1-3)GlcNAc(b1-6)GalNAc", "summary_of_the_method": "as §1"}, "[5]": {"target": "Gal(b1-3)GlcNAc(b1-6)[Gal(b1-3)]GalNAc", "summary_of_the_method": "as §1"}, "Gal(b1-3)GlcNAc6S": {"target": "Gal(b1-3)GlcNAc6S", "summary_of_the_method": "as §1"}, "[6]": {"target": "Gal(b1-3)[Fuc(a1-4)]GlcNAc", "summary_of_the_method": "as §1"}, "[7]": {"target": "Gal(b1-3)[Fuc(a1-4)]GlcNAc(b1-2)Man", "summary_of_the_method": "as §1"}, "[8]": {"target": "Gal(b1-3)[Fuc(a1-4)]GlcNAc(b1-2)Man(a1-3)[Gal(b1-3)[Fuc(a1-4)]GlcNAc(b1-2)Man(a1-6)]Man(b1-4)GlcNAc(b1-4)GlcNAc", "summary_of_the_method": "as §1"}, "[9]": {"target": "Gal(b1-3)[Fuc(a1-4)]GlcNAc(b1-2)Man(a1-3)[Gal(b1-3)[Fuc(a1-4)]GlcNAc(b1-2)Man(a1-6)]Man(b1-4)GlcNAc(b1-4)[Fuc(a1-6)]GlcNAc", "summary_of_the_method": "as §1"}, "[10]": {"target": "Gal(b1-3)[Fuc(a1-4)]GlcNAc(b1-3)Gal(b1-3)[Fuc(a1-4)]GlcNAc", "summary_of_the_method": "as §1"}, "[11]": {"target": "Gal(b1-3)[Fuc(a1-4)]GlcNAc(b1-3)Gal(b1-4)GlcNAc", "summary_of_the_method": "as §1"}, "[12]": {"target": "Gal(b1-3)[Fuc(a1-4)]GlcNAc(b1-3)Gal(b1-4)[Fuc(a1-3)]GlcNAc", "summary_of_the_method": "as §1"}, "[13]": {"target": "Gal(b1-3)[Fuc(a1-4)]GlcNAc(b1-6)GalNAc", "summary_of_the_method": "as §1"}, "[14]": {"target": "Gal(b1-3)[GlcNAc(b1-6)]GalNAc", "summary_of_the_method": "as §1"}, "[15]": {"target": "Gal(b1-3)[Neu5Ac(a2-6)]GalNAc", "summary_of_the_method": "as §1"}, "[16]": {"target": "Gal(b1-3)[Neu5Ac(a2-6)]GlcNAc(b1-4)Gal(b1-4)Glc", "summary_of_the_method": "as §1"}, "[17]": {"target": "Gal(b1-3)[Neu5Ac(a2-6)]GlcNAc(b1-6)Gal(b1-4)Glc", "summary_of_the_method": "as §1"}, "[18]": {"target": "Gal(b1-3)[Neu5Ac(b2-6)]GalNAc", "summary_of_the_method": "as §1"}, "Gal(b1-4)Gal": {"target": "Gal(b1-4)Gal", "summary_of_the_method": "as §1"}, "[19]": {"target": "Gal(b1-4)GalNAc(a1-3)[Fuc(a1-2)]Gal(b1-4)GlcNAc", "summary_of_the_method": "as §1"}, "[20]": {"target": "Gal(b1-4)GalNAc(b1-3)[Fuc(a1-2)]Gal(b1-4)GlcNAc", "summary_of_the_method": "as §1"}, "Gal(b1-4)Glc": {"target": "Gal(b1-4)Glc", "summary_of_the_method": "as §1"}, "Gal(b1-4)Glc6S": {"target": "Gal(b1-4)Glc6S", "summary_of_the_method": "as §1"}, "Gal(b1-4)GlcNAc": {"target": "Gal(b1-4)GlcNAc", "summary_of_the_method": "as §1"}, "[21]": {"target": "Gal(b1-4)GlcNAc(a1-6)Gal(b1-4)GlcNAc", "summary_of_the_method": "as §1"}, "Gal(b1-4)GlcNAc(b1-2)Man": {"target": "Gal(b1-4)GlcNAc(b1-2)Man", "summary_of_the_method": "as §1"}, "[22]": {"target": "Gal(b1-4)GlcNAc(b1-2)Man(a1-3)Man(b1-4)GlcNAc(b1-4)GlcNAc", "summary_of_the_method": "as §1"}, "[23]": {"target": "Gal(b1-4)GlcNAc(b1-2)Man(a1-3)[Gal(b1-4)GlcNAc(b1-2)Man(a1-6)]Man(b1-4)GlcNAc(b1-4)GlcNAc", "summary_of_the_method": "as §1"}, "[24]": {"target": "Gal(b1-4)GlcNAc(b1-2)Man(a1-3)[Gal(b1-4)GlcNAc(b1-2)Man(a1-6)]Man(b1-4)GlcNAc(b1-4)[Fuc(a1-6)]GlcNAc", "summary_of_the_method": "as §1"}, "[25]": {"target": "Gal(b1-4)GlcNAc(b1-2)Man(a1-3)[Gal(b1-4)GlcNAc(b1-2)Man(a1-6)][Gal(b1-4)GlcNAc(b1-4)]Man(b1-4)GlcNAc(b1-4)[Fuc(a1-6)]GlcNAc", "summary_of_the_method": "as §1"}, "[26]": {"target": "Gal(b1-4)GlcNAc(b1-2)Man(a1-3)[Gal(b1-4)GlcNAc(b1-2)Man(a1-6)][GlcNAc(b1-4)]Man(b1-4)GlcNAc(b1-4)[Fuc(a1-6)]GlcNAc", "summary_of_the_method": "as §1"}, "[27]": {"target": "Gal(b1-4)GlcNAc(b1-2)Man(a1-3)[GlcNAc(b1-2)Man(a1-6)]Man(b1-4)GlcNAc(b1-4)GlcNAc", "summary_of_the_method": "as §1"}, "[28]": {"target": "Gal(b1-4)GlcNAc(b1-2)Man(a1-3)[GlcNAc(b1-4)][Gal(b1-4)GlcNAc(b1-2)Man(a1-6)]Man(b1-4)GlcNAc(b1-4)GlcNAc", "summary_of_the_method": "as §1"}, "[29]": {"target": "Gal(b1-4)GlcNAc(b1-2)Man(a1-3)[Man(a1-6)]Man(b1-4)GlcNAc(b1-4)GlcNAc", "summary_of_the_method": "as §1"}, "[30]": {"target": "Gal(b1-4)GlcNAc(b1-2)Man(a1-6)Man(b1-4)GlcNAc(b1-4)GlcNAc", "summary_of_the_method": "as §1"}, "[31]": {"target": "Gal(b1-4)GlcNAc(b1-2)Man(a1-6)[GlcNAc(b1-2)Man(a1-3)]Man(b1-4)GlcNAc(b1-4)GlcNAc", "summary_of_the_method": "as §1"}, "[32]": {"target": "Gal(b1-4)GlcNAc(b1-2)Man(a1-6)[Man(a1-3)]Man(b1-4)GlcNAc(b1-4)GlcNAc", "summary_of_the_method": "as §1"}}, "note": "This is one part of the list.", "data": [{"binder": "LSECtin (Homo sapiens), Q6UXB4 (protein) MDTTRYSKWGGSSEEVPGGPWGRWVHWSRRPLFLALAVLVTTVLWAVILSILLSKASTERAALLDGHDLLRTNASKQTAALGALKEEVGDCHSCCSGTQAQLQTTRAELGEAQAKLMEQESALRELRERVTQGLAEAGRGREDVRTELFRALEAVRLQNNSCEPCPTSWLSFEGSCYFFSVPKTTWAAAQDHCADASAHLVIVGGLDEQGFLTRNTRGRGYWLGLRAVRHLGKVQGYQWVDGVSLSFSHWNQGEPNDAWGRENCVMMLHTGLWNDAPCDSEKDGWICEKRHNC", "values": [{"measurement": "glycan array binding signal (z-score)", "setting": "[1]", "value": -0.13}, {"measurement": "glycan array binding signal (z-score)", "setting": "[2]", "value": -0.134}, {"measurement": "glycan array binding signal (z-score)", "setting": "[3]", "value": -0.137}, {"measurement": "glycan array binding signal (z-score)", "setting": "[4]", "value": -0.133}, {"measurement": "glycan array binding signal (z-score)", "setting": "[5]", "value": -0.134}, {"measurement": "glycan array binding signal (z-score)", "setting": "Gal(b1-3)GlcNAc6S", "value": -0.137}, {"measurement": "glycan array binding signal (z-score)", "setting": "[6]", "value": -0.182}, {"measurement": "glycan array binding signal (z-score)", "setting": "[7]", "value": -0.136}, {"measurement": "glycan array binding signal (z-score)", "setting": "[8]", "value": 0.122}, {"measurement": "glycan array binding signal (z-score)", "setting": "[9]", "value": -0.157}, {"measurement": "glycan array binding signal (z-score)", "setting": "[10]", "value": -0.088}, {"measurement": "glycan array binding signal (z-score)", "setting": "[11]", "value": -0.162}, {"measurement": "glycan array binding signal (z-score)", "setting": "[12]", "value": -0.195}, {"measurement": "glycan array binding signal (z-score)", "setting": "[13]", "value": -0.135}, {"measurement": "glycan array binding signal (z-score)", "setting": "[14]", "value": 0.004}, {"measurement": "glycan array binding signal (z-score)", "setting": "[15]", "value": -0.201}, {"measurement": "glycan array binding signal (z-score)", "setting": "[16]", "value": -0.141}, {"measurement": "glycan array binding signal (z-score)", "setting": "[17]", "value": -0.085}, {"measurement": "glycan array binding signal (z-score)", "setting": "[18]", "value": -0.219}, {"measurement": "glycan array binding signal (z-score)", "setting": "Gal(b1-4)Gal", "value": -0.132}, {"measurement": "glycan array binding signal (z-score)", "setting": "[19]", "value": -0.187}, {"measurement": "glycan array binding signal (z-score)", "setting": "[20]", "value": -0.19}, {"measurement": "glycan array binding signal (z-score)", "setting": "Gal(b1-4)Glc", "value": -0.192}, {"measurement": "glycan array binding signal (z-score)", "setting": "Gal(b1-4)Glc6S", "value": -0.18}, {"measurement": "glycan array binding signal (z-score)", "setting": "Gal(b1-4)GlcNAc", "value": -0.189}, {"measurement": "glycan array binding signal (z-score)", "setting": "[21]", "value": -0.209}, {"measurement": "glycan array binding signal (z-score)", "setting": "Gal(b1-4)GlcNAc(b1-2)Man", "value": -0.137}, {"measurement": "glycan array binding signal (z-score)", "setting": "[22]", "value": -0.181}, {"measurement": "glycan array binding signal (z-score)", "setting": "[23]", "value": -0.21}, {"measurement": "glycan array binding signal (z-score)", "setting": "[24]", "value": -0.143}, {"measurement": "glycan array binding signal (z-score)", "setting": "[25]", "value": -0.137}, {"measurement": "glycan array binding signal (z-score)", "setting": "[26]", "value": -0.133}, {"measurement": "glycan array binding signal (z-score)", "setting": "[27]", "value": 1.71}, {"measurement": "glycan array binding signal (z-score)", "setting": "[28]", "value": -0.138}, {"measurement": "glycan array binding signal (z-score)", "setting": "[29]", "value": -0.152}, {"measurement": "glycan array binding signal (z-score)", "setting": "[30]", "value": -0.028}, {"measurement": "glycan array binding signal (z-score)", "setting": "[31]", "value": 5.9}, {"measurement": "glycan array binding signal (z-score)", "setting": "[32]", "value": 0.136}]}]}
